PubChem BioAssay AID485294 (National Center for Advancing Translational Sciences (NCATS), 2010)
The campaign covered roughly 370,000 compounds. About 150 (0.041%) were called active. This list was built around the results that the source calls inconclusive (neither active nor inactive); the mix of calls is not that of the screen. The call rests on the fitted dose curve; in most records, active means well fitted inhibition curve with a large enough effect; inconclusive means small, poorly fitted or top-dose-only effect; inactive means flat fitted curve, though single readings scatter. Potencies of inconclusive entries are left out as doubtful fits.

Target: Beta-lactamase (Escherichia coli (strain K12)) (UniProt P00811)
Assay: qHTS Inhibitors of AmpC Beta-Lactamase (assay with detergent); further: nearly all actives have a fitted effect of over 25% in size
Conditions: AmpC hydrolysis of nitrocefin, absorbance 480 nm, 0.01% Triton; series mostly up to 114 µM
How it was run: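 AmpC (5.3 nM in the dispensed reagent) in 20 mM phosphate pH 7.0 with 0.01% (detergent screen) or 0.0001% Triton X-100 was preincubated with compounds for 15 min at room temperature. Nitrocefin was then added from an 800 uM solution, and hydrolysis was followed at 480 nm.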
Potency means the concentration at half of the fitted maximal effect; tags describe the fitted curve by direction and shape.

Chain of UniProt P00811 (P00811 whole entry, looked up): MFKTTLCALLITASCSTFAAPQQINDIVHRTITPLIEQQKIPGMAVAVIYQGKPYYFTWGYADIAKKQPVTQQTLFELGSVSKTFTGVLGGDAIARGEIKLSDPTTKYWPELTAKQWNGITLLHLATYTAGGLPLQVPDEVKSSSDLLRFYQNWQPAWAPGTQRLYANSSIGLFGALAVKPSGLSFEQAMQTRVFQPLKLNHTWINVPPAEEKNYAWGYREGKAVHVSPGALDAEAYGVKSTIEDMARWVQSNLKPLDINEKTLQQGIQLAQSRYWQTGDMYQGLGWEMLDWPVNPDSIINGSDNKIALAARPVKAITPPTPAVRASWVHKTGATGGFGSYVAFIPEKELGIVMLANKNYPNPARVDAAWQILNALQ

SMILES	Potency
O=C(Nc1ccccc1C(=O)N1CCOCC1)c1noc2c1CCCC2	inconclusive [inhibitor, full curve, poor fit]
O=C(CSc1nc2c(oc3ccccc32)c(=O)[nH]1)Nc1cccc(Cl)c1	inactive
N#Cc1ccc(-c2csc(NNC(=O)c3ccc(Br)cc3)n2)cc1	inconclusive [inhibitor, full curve]
CCOCCCNC(=O)C1CCCN1C(=O)NC1CCCCC1 (configuration not stated)	inconclusive [inhibitor, full curve, poor fit]
O=c1[nH]c(=O)n(Cc2ccco2)c(O)c1C=NCCCn1ccnc1	inconclusive [inhibitor, partial curve]
COc1cc2c(cc1OC)C(C(=O)NCCC(C)C)C1CCCCN1C2=O (configuration not stated)	inconclusive [inhibitor, full curve, poor fit]
CN1C(=O)/C(=C\c2ccncc2)SC1=Nc1ccccc1	inconclusive [inhibitor, partial curve, poor fit]
CCCCOC(=O)Nc1ccc(S(=O)(=O)Nc2ccc([N+](=O)[O-])cc2)cc1	inactive
NCCCC[C@@H]1NC(=O)c2cc([N+](=O)[O-])cc(F)c2NCCCC[C@@H](C(N)=O)NC(=O)CNC1=O	inconclusive [inhibitor, full curve, poor fit]
Cc1c(Cl)cccc1NC(=O)CSc1cc(-c2ccccc2)ncn1	inactive
O=C(COc1ccccc1-c1ccccc1)N/N=C/c1cccc2ccccc12	inconclusive [inhibitor, partial curve]
CCc1nc(SCc2ccc(C(=O)OC)o2)c2c(=O)n(C)c(=O)n(C)c2n1	inconclusive [inhibitor, single point]
CC1CCCN(c2nc(N(C)c3ccccc3)nc(N)c2[N+](=O)[O-])C1 (configuration not stated)	inactive
Cc1[nH][nH]c(=O)c1C=NCc1cccnc1	inconclusive [inhibitor, full curve, poor fit]
COc1ccc2[nH]c3c(c2c1)CCN1C(=O)N([C@@H](C)C(=O)NCC2CCCO2)C(=O)[C@]31C (some centres not stated)	inconclusive [inhibitor, full curve]
Cc1onc(-c2ccccc2Cl)c1C(=O)Nc1nn[nH]n1	inconclusive [inhibitor, partial curve]
Cc1ccc(NC(=O)Cn2cc(S(=O)(=O)NC(C)C)c(S(=O)(=O)NC(C)C)c2)cc1Cl	inactive
O=C(Nc1ccc(F)cc1)N1CCOCC1	inconclusive [inhibitor, single point]
COc1ccccc1OCC(=O)OCC(=O)Nc1sccc1C(N)=O	inconclusive [inhibitor, partial curve]
O=[N+]([O-])c1c(NCc2ccccc2)cc(N2CCc3ccccc3C2)c2nonc12	inconclusive [inhibitor, single point]
CCn1c(-c2cc(-c3ccc(C)cc3)nc3ccccc23)n[nH]c1=S	inconclusive [inhibitor, partial curve, poor fit]

SMILES	Potency
Cc1ccc(/C=N/NC(=S)NCCc2ccccc2)s1	inconclusive [inhibitor, full curve, poor fit]
CCCCCn1c(=O)c(C(=O)Nc2ncccc2C)c(O)c2ccccc21	inconclusive [inhibitor, full curve, poor fit]
CC(C)C(OC(=O)c1nsc(Cl)c1Cl)C(=O)NCc1ccccc1 (configuration not stated)	inconclusive [inhibitor, full curve]
Cc1nc(N)sc1C(=O)N/N=C/c1ccco1	inactive
Cc1ccc(OCCCC(=O)Nc2ccc(Br)cc2)cc1	inconclusive [inhibitor, partial curve]
CCN(CC(=O)Nc1ccc(NC(C)=O)cc1)C(=O)/C=C/c1ccco1	inactive
CC(OC(=O)c1cccs1)C(=O)NC1CCCCC1C (configuration not stated)	inconclusive [inhibitor, full curve, poor fit]
O=C(Nc1ccc(N2CCOCC2)c(Cl)c1)c1ccc(F)cc1	inactive
CCOC(=O)c1ccccc1NC(=O)CN1C(=O)NC(C)(CCc2ccccc2)C1=O (configuration not stated)	inconclusive [inhibitor, partial curve, poor fit]
CCCn1c(N2CCC(Cc3ccccc3)CC2)nc2c1c(=O)[nH]c(=O)n2C	inconclusive [inhibitor, full curve, poor fit]
Cc1ccc(CN2CC(C(=O)O)CC2=O)cc1 (configuration not stated)	inconclusive [inhibitor, single point]
Cc1ccc2c(SCC(=O)NCc3ccco3)nc(-c3ccc(F)cc3)nc2c1	inconclusive [inhibitor, partial curve, poor fit]
COCCCNC(=O)c1ccc(CS(=O)(=O)c2ccc(OC)cc2)o1	inconclusive [inhibitor, full curve, poor fit]
CC(=O)c1ccc(S(=O)(=O)Nc2cccc(S(=O)(=O)NC3=NCCC3)c2)cc1	inactive
Cc1ccc(CSCCNC(=O)c2ccccc2)cc1	inconclusive [inhibitor, full curve]
Cc1ccc(N2CC(c3nc4ccccc4n3C)CC2=O)cc1 (configuration not stated)	inconclusive [inhibitor, partial curve]
Cc1nn(-c2ccc(F)cc2)c(Cl)c1/C=C(\CC(=O)O)c1nc2ccccc2s1	inconclusive [inhibitor, full curve, poor fit]
CCOc1ccc(C(=O)Nc2cccc3nsnc23)cc1[N+](=O)[O-]	inconclusive [inhibitor, full curve, poor fit]
COc1cccc(NC(=O)Cn2cnc3c(oc4nc5c(cc43)CCCC5)c2=O)c1	inactive
COc1ccc(N2C(=O)CC(N(CCc3ccccc3)C(=O)c3ccccc3)C2=O)cc1 (configuration not stated)	inactive
Cc1ccc2nc3cc([N+](=O)[O-])cc([N+](=O)[O-])c3cc2c1	inconclusive [inhibitor, single point]
